Results on 45 compounds are retold here after paper PMC4336329 (PLoS ONE, 2015).

SMILES strings stand for the structures. Hit rate of the full screen: of about 310,000 compounds, about 14,000 (4.5%) showed an effect of 50% or more. The effect is printed as a negative number. This is one part of the list.
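Note: peak tail current of the secondary pulse compared with the same well before compound.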

In this assay the target is human ether-à-go-go-related gene (hERG) potassium channel (human, UniProt Q12809). The experiment in a line: primary screen, population patch clamp on CHO cells stably expressing hERG.
Sequence of human ether-à-go-go-related gene (hERG) potassium channel (Q12809 whole entry, looked up): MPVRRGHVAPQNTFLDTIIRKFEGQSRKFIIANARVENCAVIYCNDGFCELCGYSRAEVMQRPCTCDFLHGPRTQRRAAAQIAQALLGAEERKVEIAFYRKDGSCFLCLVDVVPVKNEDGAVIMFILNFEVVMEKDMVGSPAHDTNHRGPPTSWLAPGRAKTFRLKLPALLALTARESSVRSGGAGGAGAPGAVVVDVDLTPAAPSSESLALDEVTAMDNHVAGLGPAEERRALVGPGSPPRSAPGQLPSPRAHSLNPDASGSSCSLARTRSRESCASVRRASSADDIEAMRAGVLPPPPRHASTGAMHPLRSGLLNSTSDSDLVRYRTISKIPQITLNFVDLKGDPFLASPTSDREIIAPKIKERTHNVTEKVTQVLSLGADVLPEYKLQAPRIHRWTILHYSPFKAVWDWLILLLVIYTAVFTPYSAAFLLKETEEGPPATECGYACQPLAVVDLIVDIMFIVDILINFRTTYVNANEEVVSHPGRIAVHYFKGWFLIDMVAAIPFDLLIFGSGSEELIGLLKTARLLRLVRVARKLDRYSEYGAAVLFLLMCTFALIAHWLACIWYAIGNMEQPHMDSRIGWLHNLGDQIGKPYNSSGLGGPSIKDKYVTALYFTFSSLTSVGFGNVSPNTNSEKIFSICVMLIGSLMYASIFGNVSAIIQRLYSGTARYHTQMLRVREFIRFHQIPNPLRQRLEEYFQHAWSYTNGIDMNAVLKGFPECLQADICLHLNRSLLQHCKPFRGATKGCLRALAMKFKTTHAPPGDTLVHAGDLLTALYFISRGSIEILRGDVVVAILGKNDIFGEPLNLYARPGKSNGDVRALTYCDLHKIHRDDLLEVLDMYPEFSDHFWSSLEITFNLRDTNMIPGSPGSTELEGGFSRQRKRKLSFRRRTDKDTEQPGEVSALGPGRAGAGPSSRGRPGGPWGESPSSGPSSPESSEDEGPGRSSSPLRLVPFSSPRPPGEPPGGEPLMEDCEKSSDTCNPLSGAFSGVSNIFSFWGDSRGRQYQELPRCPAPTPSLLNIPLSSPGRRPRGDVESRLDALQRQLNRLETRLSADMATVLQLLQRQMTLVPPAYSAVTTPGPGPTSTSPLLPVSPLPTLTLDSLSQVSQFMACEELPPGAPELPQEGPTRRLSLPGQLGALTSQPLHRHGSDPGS
As to `Nc1ccc(C(=O)OCc2nc3c(ccc4ccccc43)[nH]2)cc1`, the “hERG current change (%, negative = inhibition) at 10uM” value was 14.6%.
Next, `O=C(c1ccccc1OC(F)F)N1CCN(S(=O)(=O)c2ccc3c(c2)OCCCO3)CC1`: -26.8%; `CCOc1cc(/C=N/NC(=O)c2cccnc2)ccc1O`: 10%; `CC(C)Oc1ccc(OCCCN2CCCCCC2)cc1.O=C(O)C(=O)O`: -54.8%.
For `Cc1noc(C)c1C(=O)N1CCN(Cc2ccccc2)CC1` the value was 10.4%.
For `CCOc1ccc(NC(=O)C2CCCN(C(=O)Nc3ccccc3)C2)cc1` (stereo not drawn) the value was 2.35%.
For `CC(=O)c1c(C)[nH]c(C(=O)COC(=O)c2cc(S(=O)(=O)N(C)c3ccccc3)ccc2Cl)c1C`, the “hERG current change (%, negative = inhibition) at 10uM” value turned out to be 3.37%.
Next, `N=c1c(C(=O)NCc2ccco2)cc2c(=O)n3ccccc3nc2n1CCc1ccccc1`: -76.7%; `O=C(NCCc1ccc(Cl)cc1)C1CCN(S(=O)(=O)N2CCCC2)CC1`: -52.3%; `O=C(COc1ccc(Cl)cc1Br)N1CCN(S(=O)(=O)c2ccccc2)CC1`: -9.19%.
With `CSc1ccccc1NC(=O)c1ccc(CN2CCOCC2)cc1`, the “hERG current change (%, negative = inhibition) at 10uM” value is 4.69%.
`O=S(=O)(c1ccc(F)cc1)c1nc(-c2ccccc2F)oc1N1CCCCC1`: the “hERG current change (%, negative = inhibition) at 10uM” value is on record as -20%.
Next, `Cc1cc(C(=O)O)ccc1-c1ccc(CO)o1`: 24.3%.
Next, `Cc1ccc(OCC(=O)Nc2ccc(S(=O)(=O)N3CCCCC3)cc2)c([N+](=O)[O-])n1`: 10.4%; `CCNC(=O)c1cc2ccccc2o1`: 5.18%; `Cc1ccc(Cn2c(CN3CCN(C(=O)c4ccco4)CC3)nc3c2c(=O)n(C)c(=O)n3C)cc1`: -54.2%.
Next, `O=C(O)c1nn(Cc2nc3ccccc3o2)c(=O)c2ccccc12`: 20.6%; `N#Cc1ccccc1OCC(=O)OCC(=O)NC1CCS(=O)(=O)C1` (stereo not drawn): -6.74%; `COc1ccc2nc(NC(=O)c3cccc(S(=O)(=O)N4CCOCC4)c3)sc2c1`: -7.11%.
As to `CCc1ccccc1NC(=O)COC(=O)c1c(C)nsc1NC`, the “hERG current change (%, negative = inhibition) at 10uM” value is recorded as -2.87%.
Next, `CCN(CC(=O)Nc1c(F)cccc1F)C(=O)CCNC(=O)c1ccc([N+](=O)[O-])cc1`: -55.4%; `COc1ccc(N=Cc2cc3c(cc2O)OC(N)=C(C#N)C3c2ccccc2)cc1` (stereo not drawn): 7.37%.
Next, `O=C1NC(=O)C2(COC(c3cccnc3)OC2)S1` (stereo not drawn): 16.1%; `O=C1S/C(=C\c2ccccn2)C(=O)N1Cc1ccccc1F`: 9.45%.
Next, `COc1cccc(N2[C@@H](CC(C)=O)c3ccc(/C=C/C(C)=O)cc3S2(=O)=O)c1`: -11.7%; `NC1=NC(=O)/C(=C\c2ccco2)S1`: 19.2%.
Turning to `CC1CN(C(=O)c2ccccc2Oc2ccccc2)CC(C)O1` (stereo not drawn), the “hERG current change (%, negative = inhibition) at 10uM” value is on record as -6.99%.
Next, `CCC(C)c1ccc(O)c(NC(=O)c2cncc(Br)c2)c1` (stereo not drawn): -15.4%; `Cc1ccc(CNC(=S)Nc2cc(C)ccc2OC(F)F)cc1`: 0.274%.
Next, `CSc1ncccc1C(=O)NC1CCCCCC1`: 39.2%.
For `Cc1ccc(N=Nc2ccc(O)c3ncccc23)cc1` the value was 3.33%; for `CC(=O)N1CCC(C(=O)Nc2ccccc2)(N(Cc2ccccc2)C(=O)c2cccnc2)CC1`, 16.1%.
Take `Cc1nc(NC(=O)c2ccc(Br)o2)sc1C`: the “hERG current change (%, negative = inhibition) at 10uM” value was -0.217%.
Next, `CCCn1c(SCC(=O)N2CCCC(C)C2)nnc1-c1cccnc1` (stereo not drawn): -16.9%.
For `COc1cccc(NC(=O)CN(C)C(=O)Cn2[nH]c(=O)c3ccccc3c2=O)c1` the value was 25.4%; for `NC(=O)C12CCCC(Br)(CCC1)C2`, 10.1%.
For `COc1ccc(C(=O)Nc2nncs2)c(OC)c1` the value was 7.19%; for `CCC(C)[C@H](NC(=O)N1CCCC1)C(=O)OC` (stereo partly drawn), -0.198%.
Consider `COc1ccc(CN2CCCC(C(=O)Nc3cccc(-n4cccn4)c3)C2)cc1` (stereo not drawn), for which the “hERG current change (%, negative = inhibition) at 10uM” value is on record as -58.9%.
For `CCOC(CNc1cc(C)nc2c(-c3ccccc3OC)c(C)nn12)OCC` the value was 8.64%.
Next, `O=C(CSc1nnc(-c2cccnc2)o1)Nc1cccc(F)c1`: -1.97%; `COc1cn(-c2ccccc2)nc1C(=O)Nc1ccc(C)cc1Cl`: 17%; `Cc1ccc(S(=O)(=O)NC(=S)NC2CCCCC2)cc1`: 15.4%.
For `O=C(Nc1ccc(-c2nc3ccccc3[nH]2)cc1)c1ccccc1NS(=O)(=O)c1ccc(F)cc1` the value was -0.475%; for `COc1ccc(S(=O)(=O)N2CCOC23CCN(C(=O)c2ccc(Cl)cc2Cl)CC3)cc1`, -68.9%.
